Measurements taken from paper PMC4336329 (PLoS ONE, 2015).
The campaign covered roughly 310,000 compounds. About 2,200 (0.71%) showed an effect of 50% or more. The effect is printed as a negative number. The list shows a part of the results.

biological target: human ether-à-go-go-related gene (hERG) potassium channel (human, UniProt Q12809); assay: primary screen, population patch clamp on CHO cells stably expressing hERG
Sequence (Q12809 whole entry, looked up): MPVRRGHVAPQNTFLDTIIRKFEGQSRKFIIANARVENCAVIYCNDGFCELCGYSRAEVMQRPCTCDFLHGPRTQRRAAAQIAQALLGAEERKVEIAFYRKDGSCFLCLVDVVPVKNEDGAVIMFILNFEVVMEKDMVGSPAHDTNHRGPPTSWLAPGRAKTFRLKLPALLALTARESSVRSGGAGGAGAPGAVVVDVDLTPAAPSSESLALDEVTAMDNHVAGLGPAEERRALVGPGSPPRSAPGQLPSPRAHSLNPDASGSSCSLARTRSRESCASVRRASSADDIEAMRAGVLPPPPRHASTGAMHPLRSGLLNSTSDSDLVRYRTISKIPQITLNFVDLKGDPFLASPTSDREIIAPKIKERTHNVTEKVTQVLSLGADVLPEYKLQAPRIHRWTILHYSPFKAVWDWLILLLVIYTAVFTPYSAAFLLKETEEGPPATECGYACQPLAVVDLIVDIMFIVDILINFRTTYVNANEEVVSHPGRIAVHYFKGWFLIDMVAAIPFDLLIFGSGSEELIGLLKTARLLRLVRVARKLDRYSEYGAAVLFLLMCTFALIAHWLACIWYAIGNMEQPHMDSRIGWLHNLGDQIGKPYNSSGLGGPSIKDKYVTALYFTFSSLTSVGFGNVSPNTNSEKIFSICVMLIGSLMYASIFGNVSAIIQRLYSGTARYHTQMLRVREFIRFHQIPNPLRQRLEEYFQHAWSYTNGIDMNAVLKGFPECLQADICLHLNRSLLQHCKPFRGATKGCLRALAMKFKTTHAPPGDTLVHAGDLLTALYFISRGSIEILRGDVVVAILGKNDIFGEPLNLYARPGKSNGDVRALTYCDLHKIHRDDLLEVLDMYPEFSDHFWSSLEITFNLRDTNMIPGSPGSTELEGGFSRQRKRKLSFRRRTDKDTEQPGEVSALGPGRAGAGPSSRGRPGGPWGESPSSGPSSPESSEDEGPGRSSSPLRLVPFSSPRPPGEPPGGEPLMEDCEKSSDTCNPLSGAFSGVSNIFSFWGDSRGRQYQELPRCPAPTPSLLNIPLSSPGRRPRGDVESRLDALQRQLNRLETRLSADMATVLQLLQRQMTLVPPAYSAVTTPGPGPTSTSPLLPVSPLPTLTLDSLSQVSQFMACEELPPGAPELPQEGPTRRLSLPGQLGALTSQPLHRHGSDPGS

Row | Compound | hERG current change (%, negative = inhibition) at 1uM
1 | COC(=O)c1ccc(C(=O)Nc2ccc3c(c2)C(=O)NC3=O)cc1 | 8.58%
2 | CC(NS(=O)(=O)c1ccc(F)cc1)C(=O)Nc1ccc2c(c1)OCCO2 (stereo not shown) | 14.7%
3 | CCOC(=O)c1cc(NC(=O)N(C)C2CCCCC2)c(C)nc1C | 12%
4 | O=C(Nc1ccc(F)cc1)C(Sc1nnc2ccccn12)c1ccccc1 (stereo not shown) | 10%
5 | O=S(=O)(c1cccc(C(F)(F)F)c1)N1CCN(c2ccccc2)CC1 | -7.98%
6 | Cc1ccc(C)c(S(=O)(=O)NCC(=O)N2CCCC2)c1 | 12%
7 | Cc1cc(-c2cccnc2)c(C#N)c(SCC#N)n1 | 9.79%
8 | CCn1c(O)c(C=Nc2cc(Cl)ccc2Cl)c(=O)n(CC)c1=O | 9.47%
9 | COc1cc(/C=N/NC(=S)Nc2cccc(S(=O)(=O)N(C)C)c2)cc(OC)c1O | -4.14%
10 | COc1ccc(COc2cc(-c3cccc(OC)c3)nc3ccc(NC(=O)c4ccc(Cl)cc4)cc23)cc1 | 9.64%
11 | CCN1C(=O)N(CC)C2C1N(CO)C(=O)N2CO (stereo not shown) | 16.3%
12 | COc1ccc(OC)c(CNC(=O)CCC(=O)N2Cc3ccccc3Oc3ncccc32)c1 | -10.8%
13 | Cc1ccc(NC(=O)COC(=O)c2ccccc2Nc2ccccc2)cc1 | 10.7%
14 | Cc1nc(Nc2ccc(F)cc2)[nH]c(=O)c1CCC(C)C | 19.2%
15 | COC(=O)n1ccc(C(=O)Nc2ccccc2F)n1 | -7.2%
16 | COc1ccc(C2c3ccsc3CCN2C(=O)NC(C)(C)C)cc1 (stereo not shown) | 3.01%
17 | CS(=O)(=O)NCc1nnc(SCC(=O)NC2CCCCC2)n1-c1ccc(F)cc1 | 10.3%
18 | Nc1c(C(=O)CSc2nnc(Nc3ccc(F)cc3)s2)c(=O)[nH]c(=O)n1C1CC1 | 3.38%
19 | O=C(Nc1ccncc1)c1ccccc1-c1ccccc1 | 12.5%
20 | COc1ccc(-c2cc(C(F)(F)F)nc(N3CCN(Cc4ccccc4)CC3)n2)cc1OC | 23.2%
21 | O=C(NNC(=O)c1ccccc1F)c1ccc2[nH]c(=O)c(=O)[nH]c2c1 | 3.21%
22 | Cc1cc(NCc2ccccc2Cl)n2nnnc2n1 | 17.8%
23 | O=C(Nc1cccc(-c2nc3cccnc3s2)c1)c1cccnc1Cl | 4.08%
24 | CC(C)(C)c1csc(NC(=O)c2ccc3nccnc3c2)n1 | -6.96%
25 | CCCN(CCC)CCNC(=O)Cn1cnc2sc(C)c(S(=O)(=O)N3CCOCC3)c2c1=O | 13.6%
